The text below walks through data of PubChem BioAssay AID488969 (Vanderbilt High Throughput Screening Facility, 2010).

Molecules are shown by their SMILES. In all, about 110,000 compounds were measured (“z-score”: median about -0.1, highest 2% from about 2 on). The list shows a part of the results. Calls of active or inactive are those of the source.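 How the source made its calls: active means z-score in the third read window above 3 or below -3; inactive means the rest.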

This experiment addresses Metabotropic glutamate receptor 8 (Rattus norvegicus) (UniProt P70579). Nature of the experiment: rat mGluR8 modulators via GIRK flux, primary screen, cell-based, thallium flux, HTS (AID 488969). To be noted: HEK293 rat mGluR8, GIRK (G protein-gated inwardly rectifying potassium channel) thallium flux, FluoZin2; at 10 µM; stronger effect = higher value; submaximal glutamate (EC20) added with thallium.
Chain of UniProt P70579 (P70579 whole entry, looked up): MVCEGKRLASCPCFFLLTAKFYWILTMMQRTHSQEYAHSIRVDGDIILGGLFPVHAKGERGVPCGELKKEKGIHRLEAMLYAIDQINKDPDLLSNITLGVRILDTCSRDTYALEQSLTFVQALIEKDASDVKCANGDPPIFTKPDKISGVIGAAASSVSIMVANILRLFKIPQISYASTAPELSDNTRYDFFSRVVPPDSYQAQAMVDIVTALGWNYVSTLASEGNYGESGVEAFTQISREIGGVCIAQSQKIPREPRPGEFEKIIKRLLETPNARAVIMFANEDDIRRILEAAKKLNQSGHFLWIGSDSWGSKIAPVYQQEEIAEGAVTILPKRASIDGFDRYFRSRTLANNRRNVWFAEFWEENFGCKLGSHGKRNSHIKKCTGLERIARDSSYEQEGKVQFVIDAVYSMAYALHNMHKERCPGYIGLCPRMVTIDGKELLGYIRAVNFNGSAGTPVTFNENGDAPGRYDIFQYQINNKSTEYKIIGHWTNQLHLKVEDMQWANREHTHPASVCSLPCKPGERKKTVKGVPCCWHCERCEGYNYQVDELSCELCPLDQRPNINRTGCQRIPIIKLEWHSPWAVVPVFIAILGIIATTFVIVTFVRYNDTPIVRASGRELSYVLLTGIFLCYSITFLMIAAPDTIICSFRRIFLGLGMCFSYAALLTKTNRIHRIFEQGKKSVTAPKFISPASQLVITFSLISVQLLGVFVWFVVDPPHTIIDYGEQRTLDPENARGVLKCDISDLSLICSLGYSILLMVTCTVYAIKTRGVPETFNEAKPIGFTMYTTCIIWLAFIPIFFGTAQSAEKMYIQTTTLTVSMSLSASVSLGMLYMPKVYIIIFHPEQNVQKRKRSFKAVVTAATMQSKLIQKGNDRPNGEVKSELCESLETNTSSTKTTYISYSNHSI
With `Cn1c(SCC(=O)N2CCN(Cc3ccccc3)CC2)nnc1-c1ccncc1`, the z-score was 0.198.

Compound `CCc1nnc(NC(=O)C2CC(=O)N(Cc3ccco3)C2)s1` (stereo not given) had a z-score of 0.998.

With `Cc1cccc(NC(=O)c2sc(NC(=O)c3ccco3)c(C#N)c2C)c1C`, the z-score was -0.624.

As for `O=C(c1ccco1)N1CCN(C(=O)c2cc(-c3ccccn3)nc3ccc(Cl)cc23)CC1`, the z-score is -0.208.

Take `C=CCN(C(=O)Nc1ccc2oc(C)nc2c1)c1ccccc1`: the z-score amounted to 0.00235.

For the compound `CC1CCN(C(=O)CSc2nncn2-c2ccccn2)CC1`, the z-score is -0.0486.

Take `CC(C)Oc1cccc(-c2cc(C(=O)N3CCN(S(C)(=O)=O)CC3)c3ccccc3n2)c1`: the z-score was -0.532.

The compound `CCOc1ccc(NC(=S)NC(=O)/C=C/c2ccc(OC)c(OC)c2)c([N+](=O)[O-])c1` showed a z-score of -0.602.

`CC1(C)CC(=O)C=C(NCc2ccncc2)C1` yielded a z-score of 0.166.

Compound `Cc1c(Cl)cccc1N1C(=O)c2ccccc2C1=O` yielded a z-score of 0.51.

`O=C(O)CNC(=O)/C(=C/c1cccc([N+](=O)[O-])c1)NC(=O)c1ccco1` gave a z-score of 0.263.

`CCCc1nc2n[nH]c(N)c2c2c1CCCC2` showed a z-score of 0.143.

Turning to `CCC(CC)C(=O)N1CCCC(c2nc(-c3cccs3)no2)C1` (stereo not given), the z-score is -0.0784.

`O=C(CSCc1ccccc1Cl)Nc1c[nH]c(=O)[nH]c1=O` gave a z-score of 0.0124.

`COc1cccc(C2CC(c3ccccc3OC)n3ncnc3N2)c1` (stereo not given) displayed a z-score of 0.812.

Compound `Cc1cnc(NC(=O)c2c(O)c3cccc4c3n(c2=O)CCC4)s1` returned a z-score of -0.425.

On to `COc1ccc(/C=N/NS(=O)(=O)c2ccccc2)cc1OS(=O)(=O)c1ccc(C)cc1`, for which the z-score was -1.1.

Consider `CC(=O)c1c(C)[nH]c(C(=O)CSc2nnc(-c3ccccc3)n2Cc2ccc3c(c2)OCO3)c1C`, for which the z-score was -0.421.

For the compound `CCOC(=O)c1c(NC(=O)c2ccco2)n(C2CCCCC2)c2nc3ccccc3nc12`, the z-score is -0.604.

`CN(CCC#N)C(=O)COC(=O)c1ccc(CNS(=O)(=O)c2ccc(F)c(Cl)c2)cc1` returned a z-score of 0.306.

Take `COc1cc(-c2cc(-c3ccccc3)nc(SCC(=O)Nc3nccs3)c2C#N)cc(OC)c1OC`: the z-score is -0.105.

As to `Cc1ccc(-c2csc3ncn(CC(=O)N4CCOCC4)c(=O)c23)cc1C`, the z-score was -0.43.

As for `CCS(=O)(=O)c1ccc2c(c1)N(S(C)(=O)=O)CC(C(=O)NCCOC)O2` (stereo not given), the z-score is -0.171.

`CC1CCC2(CC1)NC(=S)N(c1ccccc1)N2` (stereo not given): the z-score is 0.323.

`CNc1cc(C(F)(F)F)nc(-c2ccccn2)n1` came in with a z-score of 0.0033.

`COC(=O)c1[nH]c(=O)c2ccccc2c1OCc1ccccc1` gave a z-score of -0.0885.

`COc1ccc(CSCCN)cc1Cl` returned a z-score of 1.4.

With `CCC(=O)N1CCc2cc(S(=O)(=O)N(CC)c3cccc(C)c3)ccc21`, the z-score is -0.46.

With `O=C(/C=C/c1ccccc1)NC1CCS(=O)(=O)C1` (stereo not given), the z-score is -0.123.

As to `CCOC(=O)c1ccc(N2C(=O)CC(N(C)Cc3ccccc3)C2=O)cc1` (stereo not given), the z-score was -0.0145.

In turn, `Clc1cccc(CSc2ncn(-c3ccccc3)n2)c1` came in with a z-score of -0.0723.

`O=C1C2C(C(=O)N1/N=C/c1cc([N+](=O)[O-])ccc1O)C1C=CC2C12CC2` (stereo not given) gave a z-score of 0.212.

For `CCn1nc(C(=O)OCC(=O)c2c[nH]c3ccccc23)c2ccccc2c1=O`, the z-score is active: -4.1.

The compound `CCN(CC)CCN1C(=O)c2ccccc2NC1c1ccc(C)cc1` (stereo not given) came in with a z-score of -0.367.

`O=C(Cn1cnc2c(nnn2Cc2ccc(F)cc2)c1=O)N1CCCCC1`: the z-score was determined as 0.251.

The compound `CC(C)(C)c1ccc(C(=O)Nc2cnccn2)cc1` had a z-score of -0.546.

`CCOC(=O)c1cnc2c(C#N)c(C)nn2c1-c1ccccc1` had a z-score of 0.439.

Regarding `O=C(COc1ccccc1)N1CCN(c2ncnc3c2cnn3-c2ccccc2)CC1`, the z-score was -0.137.

As to `CC(Oc1ccc(Cl)cc1Cl)c1nc(-c2ccc(NC(=O)c3ccco3)cc2)no1` (stereo not given), the z-score was -0.0426.

In turn, `CC(=O)Nc1cc(N=Cc2ccc(O)cc2O)c(Cl)cc1Cl` displayed a z-score of 0.104.

`COC(=O)c1[nH]c2cccc(OC)c2c1NC(=O)CCN1CCN(c2ccccc2OC)CC1` displayed a z-score of 0.146.

In turn, `CCCCCn1c(Sc2ccccc2)nc2c1c(=O)[nH]c(=O)n2C` came in with a z-score of -0.615.

`O=[N+]([O-])c1ccc(Oc2cccc(F)c2)c2ccncc12` returned a z-score of -0.15.

For the compound `CCN(CC)C(=O)c1sc(NC(=O)c2ccncc2)c(C(=O)OC)c1C`, the z-score was found to be 0.216.

`COc1ccc(-n2c(Cc3cccn3C)nnc2SCC(=O)Nc2cccc(OC)c2)cc1` gave a z-score of -0.439.

Take `Cc1ccc(C(=O)Oc2oc(-c3ccco3)nc2C=Nc2ccc(Cl)cc2)cc1`: the z-score is -0.0764.

In turn, `O=C(Nc1cccc(S(=O)(=O)N2CCCCCC2)c1)c1ccc2ccccc2n1` gave a z-score of -0.389.

Consider `COc1ccccc1NC(=O)N1CCCC1C(=O)Nc1nnc(C(C)C)s1` (stereo not given), for which the z-score is -1.03.

Consider `OC(COCc1cccs1)CN1CCN(c2cccc(Cl)c2)CC1` (stereo not given), for which the z-score is -0.233.

The compound `Brc1cccc(-c2nnco2)c1` returned a z-score of 0.176.

`C=CCNC(=O)NS(=O)(=O)c1ccc(C)cc1` came in with a z-score of -0.483.

With `O=C(OCc1ccc([N+](=O)[O-])cc1)C1CC(=O)N(c2ccccc2)C1` (stereo not given), the z-score was -0.475.

On to `CCN(CC)c1ccc(NC(=O)CSc2nnc(N)s2)cc1C`, for which the z-score was -0.622.

`CCC(=O)N/C(=N/c1nc(C)cc(C)n1)Nc1ccc(OC)cc1` returned a z-score of -1.29.

In the case of `O=C(NCCSCc1ccco1)Nc1ccccc1`, the z-score was 0.648.

`COc1ccc(OC2OC3COC(c4ccco4)OC3C(O)C2NC(C)=O)cc1` (stereo not given): the z-score was -0.0825.

On to `CC(C)C(=O)N1C2CCC1CC(O)(c1ccc(F)cc1)C2` (stereo not given), for which the z-score was -0.705.

The compound `CCCOc1ccc(CSc2nnc(CCC)n2N)cc1` came in with a z-score of -0.749.

Consider `COCCNS(=O)(=O)c1ccc(-c2ccc(C)cc2)cc1`, for which the z-score was -0.0903.

In turn, `O=C1CC(C(=O)Nc2ccccc2C(=O)O)C(c2ccccc2)O1` (stereo not given) gave a z-score of -0.72.

In turn, `COc1ccccc1NC(=O)c1ccc(NC(=O)CSc2nnnn2C)cc1` came in with a z-score of 1.11.

In turn, `O=C(NC1CCCC1)C1CCCN1C(=O)Nc1ccccc1` (stereo not given) had a z-score of 0.644.

The compound `CCOC(=O)c1nnn(-c2nonc2N)c1CN(CC)CC` yielded a z-score of -0.751.

`COc1ccc(C2=NN(C(=O)CSc3ncccn3)C(c3ccc(OC)cc3)C2)cc1` (stereo not given) came in with a z-score of -0.254.

Regarding `Cc1cc(C)nc(NC(=O)c2cccc([N+](=O)[O-])c2C)n1`, the z-score came to 0.168.

`CCCCC(C(=O)OCC(=O)c1ccc(OC)cc1)N1C(=O)c2ccccc2C1=O` (stereo not given) returned a z-score of -0.667.

For the compound `CCOc1ccc(/C=N/OCC(=O)Nc2cc(C)on2)cc1`, the z-score is -0.838.

`CCn1nc(C(=O)Nc2nc3ccc(C)cc3s2)c2ccccc2c1=O` returned a z-score of 0.218.

For the compound `Cc1cc2ccccc2nc1Br`, the z-score is 0.061.

Compound `CS/C(=N\S(=O)(=O)c1ccc(Cl)cc1)c1ccccc1` gave a z-score of -0.184.

`CCNc1ccccc(C(=O)/C=C/c2ccc3c(c2)OCO3)c1=O` registered a z-score of -0.677.

Compound `CCn1ncc(C2=NOC(C(=O)N3CCN(c4ccccc4)CC3)C2)c1C` (stereo not given) registered a z-score of -0.631.

With `Cc1ccccc1NC(=S)NCc1ccc(Cl)cc1`, the z-score amounted to 0.236.

As to `COc1ccccc1N1CCN(C(=O)c2ccc([N+](=O)[O-])s2)CC1`, the z-score is -0.268.

Turning to `O=C(O)CNC(=O)c1ccc(OC(F)F)cc1`, the z-score is -1.34.

On to `Nc1nc(SC2c3cccc4cccc(c34)C2NS(=O)(=O)c2ccccc2)n[nH]1` (stereo not given), for which the z-score is -0.0228.

`CCOC(=O)c1c(C)c(C(=O)Nc2cc(F)ccc2F)c(C)n1C` showed a z-score of -0.35.

As for `COCCn1c(C)cc(C2=NNC(=Nc3ccccc3F)SC2)c1C`, the z-score worked out at 0.0839.

On to `CC(=O)N1N=C(c2ccc(C(C)(C)C)cc2)OC1(C)C`, for which the z-score is -0.0401.

On to `CS(=O)(=O)N(CC(=O)N1CCN(c2ccccc2F)CC1)c1ccc2c(c1)OCCO2`, for which the z-score was -0.153.

`O=c1c2ccccc2nc(SCc2nnc(-c3ccccc3Br)o2)n1Cc1ccco1` returned a z-score of 0.167.

`O=C1c2cccc3c([N+](=O)[O-])ccc(c23)C(=O)N1c1nccs1` yielded a z-score of -0.298.

`O=C(Cc1cccs1)Nc1nnc(SCC(=O)N2CCCCC2)s1`: the z-score was 0.305.

For the compound `CC(=O)Nc1cccc(OCC(=O)NS(=O)(=O)c2ccc(Cl)cc2)c1`, the z-score worked out at 0.0496.

Compound `CN(C)S(=O)(=O)c1ccc(NC(=O)c2cccnc2)cc1` yielded a z-score of -0.0468.

As to `CCOC(=O)/C(C#N)=C/Nc1ccccc1OC`, the z-score was -0.38.

`O=C(CNC(=O)c1ccccc1)Nc1cccc(C(F)(F)F)c1` returned a z-score of -0.0648.

The compound `COc1ccc(-c2ccc(S(=O)(=O)N3CCOCC3)cc2)cc1` yielded a z-score of 0.279.

`CC(C)Cc1nc(NCCN2CCOCC2)c(C#N)c2c1COC(C)(C)C2` showed a z-score of -0.172.

Compound `Cc1c(C(=O)OCC(=O)N2c3ccccc3CC2C)oc2ccccc12` (stereo not given) registered a z-score of 0.445.

Turning to `CNc1nc(Nc2ccc(C(C)=O)cc2)nc(OC(C(F)(F)F)C(F)(F)F)n1`, the z-score was -0.374.

Compound `CCOC(=O)C1=C(C(F)(F)F)Nc2ncnn2C1c1cccc(OC)c1OC` (stereo not given) showed a z-score of 0.178.

`Cc1ccccc1OCCNc1ccc(C(F)(F)F)cc1[N+](=O)[O-]` showed a z-score of -0.364.

For `Cc1ccccc1C(=O)NC(C(=O)Nc1nc2c(s1)CCCC2)C(C)C` (stereo not given), the z-score is -0.323.

The compound `CCCn1nc(C(=O)OCC(=O)Nc2ncc(Cl)c(C)c2Cl)c2ccccc2c1=O` displayed a z-score of -1.02.

`COc1ccc(-c2nn(-c3ccccc3)cc2/C=N/NC(N)=S)cc1OC` had a z-score of -0.462.

`Cc1cccc(NC(=O)/C(=C\c2ccco2)NC(=O)c2ccccc2)c1` gave a z-score of -0.314.

As to `Cc1nn2c(-c3cccc(NC(=O)c4ccco4)c3)nnc2c2ccccc12`, the z-score is -0.592.

Compound `CC1(C)CC(=O)C(C(c2ccccc2F)C2C(=O)CC(C)(C)CC2=O)C(=O)C1` showed a z-score of -0.0855.

The compound `Cc1ccccc1C1C(C#N)=C2N=C(N)c3c(sc4c3CCCCC4)N2C2=C1C(=O)CCC2` (stereo not given) came in with a z-score of -0.151.

As to `C=CCc1c(C)nc(-c2ccccc2)nc1N/N=C(\C)c1ccccc1`, the z-score was -0.217.

On to `Cc1noc(C)c1C(=O)NCc1ccco1`, for which the z-score amounted to 0.0639.

Regarding `CCN1C(=O)Cc2cc(S(=O)(=O)N3CCOCC3)ccc21`, the z-score was -0.176.

Turning to `O=C(NC(=S)N1CCc2ccccc21)c1ccccc1`, the z-score was active: 7.58.

In turn, `CCOc1ccc2nc(NC(=O)CN3CCC(n4nnc5cc(C(F)(F)F)ccc54)CC3)sc2c1` registered a z-score of 0.31.

`CCOCCCNC(=O)C(NC(=O)c1ccccn1)c1ccc(C)cc1` (stereo not given): the z-score was determined as 0.369.

With `CCOc1cc(N2CCOCC2)c(OCC)cc1NC(=O)C1CCCC1`, the z-score is -0.0851.

In turn, `O=S(=O)(c1cccc(NC(=S)Nc2ccc(Br)cc2Cl)c1)N1CCOCC1` showed a z-score of 1.04.

As for `CC(O)CNc1nc2ccccc2n1CC(=O)NCCc1ccc(Cl)cc1` (stereo not given), the z-score was -0.271.

In turn, `CC(=O)Nc1ccc(C(=O)N2CCN(C(=O)c3ccco3)CC2)cc1` gave a z-score of -0.147.
